The target of experiment [1] is T1, FLAG-tagged wild-type GMCL1 (germ cell-less protein-like 1) (human) (UniProt Q96IK5).
T1 sequence: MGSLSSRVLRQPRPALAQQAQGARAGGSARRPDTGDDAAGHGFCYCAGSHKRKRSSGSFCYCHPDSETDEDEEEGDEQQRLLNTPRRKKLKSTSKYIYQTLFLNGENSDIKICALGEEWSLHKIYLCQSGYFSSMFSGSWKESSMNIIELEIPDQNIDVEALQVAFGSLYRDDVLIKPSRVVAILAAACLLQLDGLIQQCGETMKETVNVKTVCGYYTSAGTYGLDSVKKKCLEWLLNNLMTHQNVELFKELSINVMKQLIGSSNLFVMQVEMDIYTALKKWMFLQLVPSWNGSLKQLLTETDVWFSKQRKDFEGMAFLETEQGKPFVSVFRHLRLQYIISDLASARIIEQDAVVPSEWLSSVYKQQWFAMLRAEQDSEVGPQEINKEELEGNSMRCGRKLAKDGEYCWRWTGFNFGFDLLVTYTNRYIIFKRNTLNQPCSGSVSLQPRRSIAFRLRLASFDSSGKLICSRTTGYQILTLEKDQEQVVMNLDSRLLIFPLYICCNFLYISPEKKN
Description: co-IP; FLAG-GMCL1 variants or FLAG-GMCL2 transfected into HEK293T (Figure 1C with MLN4924 for 3 hr); FLAG-M2 magnetic beads, 4 °C, 2 hr; wash buffer 50 mM Tris-HCl pH 7.5, 150 mM NaCl, 0.2% NP-40; immunoblot for endogenous 53BP1 and CUL3. (In general: A western blot detects proteins with antibodies after separation by electrophoresis.)

Sequences of proteins named here, by UniProt entry; tags and fusion partners are left off.
UniProt Q12888: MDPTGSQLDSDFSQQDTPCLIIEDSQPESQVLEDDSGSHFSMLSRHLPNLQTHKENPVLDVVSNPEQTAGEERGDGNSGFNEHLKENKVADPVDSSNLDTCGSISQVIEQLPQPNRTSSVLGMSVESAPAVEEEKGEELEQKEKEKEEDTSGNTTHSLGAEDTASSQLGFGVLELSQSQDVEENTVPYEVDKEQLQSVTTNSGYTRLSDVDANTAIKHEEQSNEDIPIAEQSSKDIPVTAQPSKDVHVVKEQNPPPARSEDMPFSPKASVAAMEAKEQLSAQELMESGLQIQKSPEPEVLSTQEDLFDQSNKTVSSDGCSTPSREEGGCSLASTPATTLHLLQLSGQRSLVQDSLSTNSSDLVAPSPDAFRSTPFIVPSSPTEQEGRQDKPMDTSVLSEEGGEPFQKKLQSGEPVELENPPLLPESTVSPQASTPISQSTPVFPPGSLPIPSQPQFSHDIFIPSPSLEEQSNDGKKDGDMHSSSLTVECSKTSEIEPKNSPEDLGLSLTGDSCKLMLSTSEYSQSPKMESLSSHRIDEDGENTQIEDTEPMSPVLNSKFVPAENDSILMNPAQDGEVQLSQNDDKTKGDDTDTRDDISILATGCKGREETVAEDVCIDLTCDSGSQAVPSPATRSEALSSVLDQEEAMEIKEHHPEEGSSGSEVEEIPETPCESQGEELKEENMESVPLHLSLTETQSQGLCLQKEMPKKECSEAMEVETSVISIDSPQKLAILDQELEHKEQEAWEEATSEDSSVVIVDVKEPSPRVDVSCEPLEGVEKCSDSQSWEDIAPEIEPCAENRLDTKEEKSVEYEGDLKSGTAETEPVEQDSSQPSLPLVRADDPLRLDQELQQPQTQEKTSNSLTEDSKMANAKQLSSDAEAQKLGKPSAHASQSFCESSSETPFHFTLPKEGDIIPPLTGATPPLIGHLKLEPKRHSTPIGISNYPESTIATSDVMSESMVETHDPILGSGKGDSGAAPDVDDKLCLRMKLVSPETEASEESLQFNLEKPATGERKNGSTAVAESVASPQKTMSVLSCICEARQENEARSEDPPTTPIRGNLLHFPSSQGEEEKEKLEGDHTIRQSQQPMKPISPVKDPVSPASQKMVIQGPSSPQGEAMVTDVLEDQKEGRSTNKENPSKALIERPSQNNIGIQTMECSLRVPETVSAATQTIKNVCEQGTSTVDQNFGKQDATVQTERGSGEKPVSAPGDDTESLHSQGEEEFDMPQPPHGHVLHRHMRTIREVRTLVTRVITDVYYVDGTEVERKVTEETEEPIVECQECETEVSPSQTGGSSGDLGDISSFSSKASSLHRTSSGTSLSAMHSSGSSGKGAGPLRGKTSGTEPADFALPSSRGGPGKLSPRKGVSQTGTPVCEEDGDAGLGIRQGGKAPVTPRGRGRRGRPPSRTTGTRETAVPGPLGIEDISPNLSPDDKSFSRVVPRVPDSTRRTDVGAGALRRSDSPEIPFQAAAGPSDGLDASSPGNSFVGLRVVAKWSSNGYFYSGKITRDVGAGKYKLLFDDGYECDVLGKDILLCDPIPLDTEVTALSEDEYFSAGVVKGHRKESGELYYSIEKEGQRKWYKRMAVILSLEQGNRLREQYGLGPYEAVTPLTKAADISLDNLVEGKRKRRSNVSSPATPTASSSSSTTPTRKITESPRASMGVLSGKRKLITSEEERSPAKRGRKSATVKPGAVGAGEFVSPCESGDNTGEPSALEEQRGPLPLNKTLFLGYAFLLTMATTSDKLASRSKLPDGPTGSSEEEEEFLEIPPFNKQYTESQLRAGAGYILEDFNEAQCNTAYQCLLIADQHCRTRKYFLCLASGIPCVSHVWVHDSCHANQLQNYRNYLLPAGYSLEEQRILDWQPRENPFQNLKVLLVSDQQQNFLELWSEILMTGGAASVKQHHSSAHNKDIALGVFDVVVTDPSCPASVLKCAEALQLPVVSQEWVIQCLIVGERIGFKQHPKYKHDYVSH

The target in experiment [2] is T2, FLAG-tagged GMCL1 R433A (human) (UniProt Q96IK5).
T2 sequence: T1 sequence with R433A
The experiment is described as above.

The target of experiment [3] is T3, FLAG-tagged GMCL2 (human) (UniProt Q8NEA9).
T3 sequence: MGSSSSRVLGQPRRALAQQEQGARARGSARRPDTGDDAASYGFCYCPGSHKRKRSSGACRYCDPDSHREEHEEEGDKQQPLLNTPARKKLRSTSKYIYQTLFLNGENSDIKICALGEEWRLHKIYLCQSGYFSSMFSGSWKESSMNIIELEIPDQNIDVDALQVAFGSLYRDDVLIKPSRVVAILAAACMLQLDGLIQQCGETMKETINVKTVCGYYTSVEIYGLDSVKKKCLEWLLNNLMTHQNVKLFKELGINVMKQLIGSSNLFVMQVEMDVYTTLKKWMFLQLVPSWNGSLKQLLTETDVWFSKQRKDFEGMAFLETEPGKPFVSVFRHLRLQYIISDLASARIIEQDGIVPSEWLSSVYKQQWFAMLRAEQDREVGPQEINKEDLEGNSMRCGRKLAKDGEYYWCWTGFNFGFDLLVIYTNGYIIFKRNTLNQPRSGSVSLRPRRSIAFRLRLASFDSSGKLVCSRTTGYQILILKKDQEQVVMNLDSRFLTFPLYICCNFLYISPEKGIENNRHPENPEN
Described as above.

For experiment [4], the target named is T4, endogenous GMCL1 with a knocked-in C-terminal 2x FLAG tag (HCT116) (human (endogenous in HCT116)) (UniProt Q96IK5).
T4 sequence: T1 sequence
Kind of experiment: co-IP; M phase-synchronized GMCL1 FLAG knock-in HCT116 cells; GMCL1 immunoprecipitated with FLAG beads, immunoblot.

Numbering of substitutions follows the chain as printed. Results are given in words; binding and its absence hold for the method and conditions named. Binding seen in cells or lysates may run through a third protein. Some entries that bind do so weakly or less than the wild type. Where a sequence is shown, tags or fusion partners need not be part of it.

With “53BP1 (p53-binding protein 1), endogenous in HEK293T (from UniProt Q12888 1-1972)”, the binding entry is given as “binds” in experiment [1], “no binding” in experiment [2] and “no binding” in experiment [3].
In the case of “53BP1, endogenous in HCT116 (from UniProt Q12888 1-1972)”, the binding entry in experiment [4] was “binds”.

The values are drawn from article PMC12815461.
